Reference: patent US20250313611A1 (VIB VZW, published 2025)

Legend:
Test in all cases: cell-based or functional assay
[1] = molecular target: T1, spike protein of authentic SARS-COV-2 Omicron BA.5 virus (SARS-CoV-2 Omicron BA.5)
[2] = molecular target: T2, spike protein of authentic SARS-COV-2 Omicron BA.2 virus (SARS-CoV-2 Omicron BA.2)
[3] = molecular target: T1, spike protein of authentic SARS-COV-2 …; remark: listed apart in the source
[4] = molecular target: T2, spike protein of authentic SARS-COV-2 …; remark: listed apart in the source
[5] = molecular target: T1, spike protein of authentic SARS-COV-2 …; remark: listed apart in the source
[6] = molecular target: T2, spike protein of authentic SARS-COV-2 …; remark: listed apart in the source
[7] = molecular target: spike protein of authentic SARS-COV-2 Omicron BA.1 virus (SARS-CoV-2 Omicron BA.1)
[8] = molecular target: spike protein of authentic SARS-COV-2 Delta virus (SARS-CoV-2 Delta)

B1: huR3DC23-Fc_LS (Fc fusion)
chain: DVQLVESGGGLVQPGGSLRLSCAVSGRIFSTYTMGWFRQAPGKEREFVAAVRWGAGTIYYADSVKGRFTISRDNAKNTVYLQMNSLRPEDTAVYYCGAAYVSKANYGSLWYQDSRRYDYWGQGTLVTVSSGGGGSGGGGS[left out - human IgG1 Fc with changes]
Q: For B1, which “geometric mean IC50 (ng/mL), live virus method” value [1] is on record?
A: 3.6 ng/mL

Q: And the “geometric mean IC50 (ng/mL), live virus method” value [2]?
A: 2.8 ng/mL

Q: What about the “geometric mean IC50 (ng/mL), live virus microneutralisation” value [3] of the same binder?
A: 3.6 ng/mL

Q: What about the “geometric mean IC50 (ng/mL), live virus microneutralisation” value [4] of the same binder?
A: 2.8 ng/mL

Q: What about the “GM IC50 in ng/mL (GSD factor), live virus microneutralisation” value (from here on “GM IC50 in ng/mL (GSD factor)”) [5] of the same binder?
A: 3.6 ng/mL

Q: What about the “GM IC50 in ng/mL (GSD factor)” value [6] of the same binder?
A: 2 ng/mL

Q: What about the “GM IC50 in ng/mL (GSD factor)” value [7] of the same binder?
A: 3.8 ng/mL

Q: What about the “GM IC50 in ng/mL (GSD factor)” value [8] of the same binder?
A: 3.6 ng/mL
